Source: the supplement of paper PMC3334620
In all, about 33,000 sequences were measured (“E-score (-0.5 to 0.5)”: median about -0.016, highest 2% from about 0.32 on). The list shows a part of the results.

Each sequence was assayed against T1, Stp1 (UniProt B3LFK1) (assay: PBM E-score (8-mer binding enrichment) (E-score (-0.5 to 0.5)); higher = stronger / more preferred TF binding; most listed sequences are background and not binding sites). Conditions: protein concentration: 200 nM; construct: GST-full length.
T1 sequence: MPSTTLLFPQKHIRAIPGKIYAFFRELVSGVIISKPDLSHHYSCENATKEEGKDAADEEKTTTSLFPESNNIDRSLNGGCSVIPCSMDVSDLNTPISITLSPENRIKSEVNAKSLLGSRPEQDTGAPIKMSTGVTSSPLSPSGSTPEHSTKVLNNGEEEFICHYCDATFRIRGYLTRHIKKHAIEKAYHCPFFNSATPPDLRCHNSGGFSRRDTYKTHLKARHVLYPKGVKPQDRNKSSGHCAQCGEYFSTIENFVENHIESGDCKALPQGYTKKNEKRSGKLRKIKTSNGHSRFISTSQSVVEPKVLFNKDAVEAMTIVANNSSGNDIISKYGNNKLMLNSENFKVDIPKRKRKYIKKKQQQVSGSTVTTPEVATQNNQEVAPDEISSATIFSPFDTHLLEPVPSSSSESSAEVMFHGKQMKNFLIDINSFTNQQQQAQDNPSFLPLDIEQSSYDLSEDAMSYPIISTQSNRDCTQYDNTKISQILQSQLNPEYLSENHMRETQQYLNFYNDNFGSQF
Protocol: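 Universal 'all 10-mer' protein binding microarrays (Agilent AMADID 015681) probed with GST-tagged S. cerevisiae TFs (full-length or DBD) made by in vitro transcription/translation (PURExpress), about 100-200 nM. Bound TF was detected with fluorescent anti-GST. Each ungapped 8-mer (which stands for itself and its reverse complement) is scored by the PBM enrichment score (E-score), a modified Wilcoxon-Mann-Whitney statistic from -0.5 to +0.5, computed with the Universal PBM Analysis Suite. Scale: above 0.35 generally sequence-specific binding.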

Row | Sequence | PBM E-score
1 | GTTAACAA | 0.0564
2 | GAGAGGTA | -0.247
3 | CAACTTTC | -0.0498
4 | ACCTCTAC | -0.149
5 | GGACCCCA | -0.298
6 | CGGTGCAG | -0.0834
7 | ATAGGCTA | -0.109
8 | CCTAATTC | -0.148
9 | TGCAGGAA | -0.0691
10 | AAAAACCG | 0.0686
11 | GTAGATTA | 0.113
12 | CTAGACAC | -0.122
13 | AATTTCGA | -0.0526
14 | ATAGGAGC | 0.0649
15 | GAAGAGAA | 0.0055
16 | AAGACGGA | -0.0847
17 | CTCGACCC | -0.262
18 | TATCTGAA | 0.109
19 | TCGCCCCA | -0.0443
20 | AACTACGA | 0.0844
21 | GCTCCTTA | -0.0842
22 | CACTAGGA | -0.161
23 | TATTGGCA | 0.0367
24 | AAGCACTA | -0.0436
25 | CTATTATA | 0.0632

Row | Sequence | PBM E-score
26 | ATGTTAGA | 0.0351
27 | CCCGAGCC | 0.0223
28 | CTAACACA | 0.124
29 | GGAGCGCC | -0.0511
30 | CCTCCGAC | -0.252
31 | CCACTACC | -0.209
32 | CCAGTCCA | -0.26
33 | CCCAAATC | -0.0904
34 | CATCTGTC | -0.316
35 | AACAGGAA | -0.00789
36 | AGACTGCA | -0.217
37 | AGCAGGTC | -0.104
38 | AGCTGCAG | 0.017
39 | CCTAAAGG | 0.0566
40 | GTTTTAGA | 0.098
41 | CCAGGATC | -0.248
42 | ATCACTCG | 0.0999
43 | CCCGCTCG | -0.0988
44 | AGTTTGAA | 0.153
45 | CTCTCAGC | -0.132
46 | ACCGCAGC | -0.119
47 | ACAATTGA | -0.01
48 | ACGCAGAA | 0.0225
49 | GTTTAAGA | -0.101
50 | ATACCAGG | -0.209

Row | Sequence | PBM E-score
51 | AGATTAAC | 0.136
52 | CCACGGGC | -0.0442
53 | CACACGGA | 0.253
54 | GGGCTACC | -0.352
55 | CTGCGACA | -0.153
56 | AAGCCAAG | -0.162
57 | CATCGATG | -0.0742
58 | ATAGTACG | 0.0384
59 | CAATGATC | -0.0883
60 | ATTGGACA | 0.00806
61 | ATAGTTAG | 0.0454
62 | TAGGATGA | -0.0101
63 | GTATTGTA | 0.21
64 | ATGTAGAC | -0.0825
65 | ATATTGTA | 0.131
66 | CCTTACCG | 0.109
67 | AGCTCTAA | -0.22
68 | CTCAAGAG | -0.256
69 | CACTAATA | 0.145
70 | AGACACCT | -0.133
71 | AGCATGCA | -0.219
72 | CTTGTTGC | 0.139
73 | ATTAGCCG | 0.236
74 | TAACAACA | 0.152
75 | CACGTGCG | 0.272

Row | Sequence | PBM E-score
76 | CACCTCCA | -0.0695
77 | AAAAGCAC | -0.146
78 | AAAAATTC | 0.115
79 | ACACGTTA | -0.109
80 | ACCATAGC | -0.105
81 | GGCTCGAA | 0.173
82 | TCTACCCA | -0.132
83 | GATGAAGC | -0.127
84 | GAGGACCC | -0.273
85 | GTCTGGTA | -0.111
86 | CGTATGAC | 0.101
87 | ATAATCAG | 0.00958
88 | CATGGGTA | -0.159
89 | CGAGTCCC | -0.21
90 | AAACCCAC | 0.0438
91 | ACATTGTC | 0.142
92 | ATAGCTGG | -0.156
93 | AGGGGCGG | 0.0498
94 | ACCTAGCG | -0.112
95 | CAATAGGG | -0.186
96 | TATACCGA | -0.0108
97 | CCAGCAAA | -0.00823
98 | ATTGACAA | 0.126
99 | AAATACTA | 0.161
100 | AAATTTGC | 0.273

Row | Sequence | PBM E-score
101 | CCGCTGTC | -0.0008
102 | CACGTAAG | -0.0411
103 | AAGCCTGC | -0.1
104 | AGCCGCAA | 0.188
105 | CCGCTTTC | -0.0403
106 | GCACCAGA | 0.0442
107 | TCACGAGA | -0.299
108 | ACTGAAGC | 0.00506
109 | CACTCCTG | -0.138
110 | ACAATAAT | 0.125
111 | CGACCTCG | -0.154
112 | ATGCAAAG | 0.0474
113 | AATTAACG | 0.185
114 | GCGTTAGA | -0.0164
115 | ATTACCTC | 0.0362
116 | AACGCGAC | -0.175
117 | ATAGTCAG | -0.0295
118 | CAAACGCG | 0.3
119 | GGGCTTCA | -0.215
120 | TGATGCAA | -0.00861
121 | GACAAACA | -0.135
122 | ATCTGGTC | -0.215
123 | CCCGAAAC | -0.0868
124 | ACGTATAT | 0.151
125 | TGCCGACA | 0.0314

Row | Sequence | PBM E-score
126 | CCATTGTA | -0.0176
127 | TACAAGCA | 0.146
128 | AATGCACT | 0.109
129 | AAAGCCCA | 0.0863
130 | GAAAGTCA | -0.0882
131 | AAGAATTA | -0.004
132 | ATGATAGC | 0.134
133 | CTGAAGGC | -0.14
134 | TATTTAGA | 0.305
135 | GTCTAGAA | 0.0594
136 | CATCCCCG | -0.075
137 | CAAAATTC | 0.183
138 | ACCCGGAA | 0.0448
139 | GGCCTTAC | -0.0401
140 | AAAGATAA | 0.215
141 | CGGGCGGA | -0.173
142 | AGGAAACT | -0.156
143 | ATTCCATC | 0.0322
144 | ACCCTATA | -0.28
145 | CTTATCAC | -0.0489
146 | GGATGCGA | -0.14
147 | AAATGATC | -0.0746
148 | CGGGCTCC | -0.285
149 | CTACAGGA | -0.16
150 | CAGGACCG | -0.285

Row | Sequence | PBM E-score
151 | ACAGGATC | -0.0961
152 | GCCAATTA | 0.0177
153 | ACGTTTAG | -0.166
154 | ATGCTTCG | 0.0151
155 | CGTGTGTC | 0.204
156 | CGAAGGGC | 0.16
157 | CCACATGA | 0.0977
158 | GAAGTGAC | -0.0146
159 | CCCAATTA | 0.024
160 | CGGGACTA | -0.231
161 | GAAACGAA | 0.133
162 | AAAATATG | 0.102
163 | CTCACGTC | -0.298
164 | CCGTGCCC | 0.365
165 | AGCTCCTC | -0.254
166 | AAACGAGT | 0.0252
167 | AGTTTCAA | -0.061
168 | CTCAATGC | 0.0245
169 | ATGTTGAA | -0.0204
170 | AACGATGC | 0.097
171 | ACAATGAT | -0.00309
172 | GTGAGGAA | -0.0636
